Laboratory results published in publication PMC4336329 (PLoS ONE, 2015).
Out of some 310,000 compounds screened, about 2,200 (0.71%) showed an effect of 50% or more. The effect is printed as a negative number. The list shows a part of the results.

What follows are compounds tested against human ether-à-go-go-related gene (hERG) potassium channel (human, UniProt Q12809) (assay: primary screen, population patch clamp on CHO cells stably expressing hERG).
Chain of human ether-à-go-go-related gene (hERG) potassium channel (Q12809 whole entry, looked up): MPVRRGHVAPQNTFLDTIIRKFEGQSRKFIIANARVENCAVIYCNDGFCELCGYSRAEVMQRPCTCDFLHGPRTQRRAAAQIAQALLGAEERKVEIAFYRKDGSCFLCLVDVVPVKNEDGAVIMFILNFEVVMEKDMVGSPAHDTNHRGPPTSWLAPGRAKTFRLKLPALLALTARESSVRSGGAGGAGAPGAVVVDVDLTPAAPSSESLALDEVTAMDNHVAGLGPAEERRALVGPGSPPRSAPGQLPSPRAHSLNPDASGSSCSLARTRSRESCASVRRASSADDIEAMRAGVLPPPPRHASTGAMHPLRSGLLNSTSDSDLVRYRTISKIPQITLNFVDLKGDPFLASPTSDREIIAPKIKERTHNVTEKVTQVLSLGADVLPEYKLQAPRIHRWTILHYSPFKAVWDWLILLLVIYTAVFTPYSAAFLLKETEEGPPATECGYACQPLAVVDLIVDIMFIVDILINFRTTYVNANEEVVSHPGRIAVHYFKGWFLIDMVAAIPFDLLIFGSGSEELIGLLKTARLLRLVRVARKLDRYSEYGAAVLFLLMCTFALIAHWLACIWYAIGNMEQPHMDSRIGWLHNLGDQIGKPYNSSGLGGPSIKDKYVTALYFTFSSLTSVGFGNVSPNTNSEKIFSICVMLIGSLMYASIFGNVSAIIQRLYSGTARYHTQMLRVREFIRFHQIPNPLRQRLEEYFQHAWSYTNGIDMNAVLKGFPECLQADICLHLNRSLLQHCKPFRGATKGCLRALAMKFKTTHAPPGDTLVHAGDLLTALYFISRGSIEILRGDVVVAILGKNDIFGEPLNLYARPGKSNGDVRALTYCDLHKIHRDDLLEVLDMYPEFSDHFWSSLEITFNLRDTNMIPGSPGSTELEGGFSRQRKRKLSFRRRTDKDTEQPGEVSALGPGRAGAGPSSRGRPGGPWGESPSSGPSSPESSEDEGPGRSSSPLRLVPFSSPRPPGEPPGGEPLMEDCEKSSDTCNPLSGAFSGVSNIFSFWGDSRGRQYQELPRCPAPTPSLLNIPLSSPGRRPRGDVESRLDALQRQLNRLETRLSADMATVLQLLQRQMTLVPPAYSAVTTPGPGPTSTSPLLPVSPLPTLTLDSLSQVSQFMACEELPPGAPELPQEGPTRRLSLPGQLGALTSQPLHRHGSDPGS

Structure (SMILES) | hERG current change (%, negative = inhibition) at 1uM [%]
Cc1cccc(N2CCN(C(=O)COCc3cc(-c4ccc5c(c4)OCO5)on3)CC2)c1C | 8.3
Cc1onc(-c2ccccc2Cl)c1C(=O)Nc1ccc(N2CCOCC2)cc1 | 4.17
Cc1cc(C)c2cc(CN(Cc3nnnn3Cc3ccc(F)cc3)C3CCCC3)c(=O)[nH]c2c1 | -2.73
CN1CCN(C(=O)CCN2C(=O)/C(=C\c3ccc(Cl)cc3Cl)SC2=S)CC1 | 13.9
O/N=C/c1cn(-c2ccccc2)nc1-c1ccccc1 | 9.64
CCOC(=O)c1ccccc1NC(=O)CCNC(=O)Cn1cnc2ccccc2c1=O | 11.8
C=CCNC(=S)NNC(=O)CCC(O)COCCC(C)C (stereo not shown) | 6.06
O=c1[nH]c(/C=C/c2ccccc2Cl)nc2ccccc12 | 4.63
O=C(NCCOc1cccnc1)C1CCC(=O)N(Cc2ccccc2F)C1 (stereo not shown) | 10.6
COc1ccc(NC(=O)C(C)N2c3cccc4cccc(c34)S2(=O)=O)cc1 (stereo not shown) | -7.5
O=C1/C(=C\c2ccc(Cl)cc2Cl)N2CCC1CC2 | 14.5
CN(Cc1ccco1)S(=O)(=O)c1cc(F)ccc1CN1C(=O)c2cccnc2C1=O | 15.9
CCOC(=O)C1CCCN(CC(O)COc2ccc(OC)cc2C(C)(C)C)C1 (stereo not shown) | -22.1
CCCCNC(=O)Nc1nnc(-c2ccccc2)o1 | -2.58
C[C@H](NC(=O)C1CCN(S(=O)(=O)c2ccccc2)CC1)C(=O)NCc1ccccn1 | 26.3
CCN1C(=O)[C@@H]2Cc3c([nH]c4ccccc34)C(c3cc(OC)c(OC)c(OC)c3)N2C1=S (stereo partly shown) | -8.76
COc1ccccc1Oc1c(C)oc2c(CN3CCOCC3)c(O)ccc2c1=O | 12.6
CCOc1ccc2[nH]c3c(NCCO)ncnc3c2c1 | 14.6
CCc1c(C(=O)N/N=C/c2ccsc2)csc1C | -0.292
O=C(O)C1CCCCC1C(=O)NCc1ccc2c(c1)OCO2 (stereo not shown) | 7.56
CCc1nnc(NC(=O)CCc2ccccc2OC)s1 | 10
O=C(CSc1nnc(-c2ccc(F)cc2)n1-c1ccccc1)NCCN1C(=O)CSC1=O | 9.97

Structure (SMILES) | hERG current change (%, negative = inhibition) at 1uM [%]
CCOC(=O)c1ccc(-c2ccc(/C=C(\C#N)C(=O)NCc3cccs3)o2)cc1 | 28.4
CCOc1ccc2[nH]c(=O)c(CN(Cc3ccccc3OC)C(=O)c3ccccc3)cc2c1 | -0.785
COc1ccc(Cl)cc1NC(=O)CN(C(=O)c1ccco1)C1CCCCC1 | 15.8
O=[N+]([O-])c1ccc(N2CCN(CC3CCCCC3)CC2)cc1 | -23
CN1CCN(CC/C=C2/c3ccccc3Sc3ccc(S(=O)(=O)N(C)C)cc32)CC1 | -14.7
CSc1ccc2c(c1)C(N1CCN(C)CC1)Cc1ccccc1S2.O=C([O-])/C=C\C(=O)[O-] (stereo not shown) | 5.38
Cc1ccc(CC(=O)NCCN2CCOCC2)cc1 | 16.8
CCOC(=O)c1ccc(NC(=O)N2CCc3ccccc3C2)cc1 | -1.49
c1ccc(-c2cn3nc4c(nc3n2)CCCC4)cc1 | 3.18
CCOC(=O)CCSc1nc(C)c2cc(OC)ccc2n1 | 4.02
COc1ccc(-c2cc(=O)oc3cc(OC(C)C(=O)NCc4ccccn4)ccc23)cc1 (stereo not shown) | -17.2
COc1ccc(C(C)(C)C)cc1S(=O)(=O)N1CCN(C)CC1 | 3.43
CCOC(=O)c1cnc2c(C)cccc2c1NCCCN1CCOCC1 | -37.3
O=C(N/N=C/c1ccc(N2CCOCC2)o1)c1cccc(F)c1 | 7.72
COc1ccc(OC)c2c(C)cc(C)nc12 | 7.2
Cc1c(Cl)cccc1N=c1c([N+](=O)[O-])nn(-c2ccccc2)n1O | -5.38
CC(C)(C)OC(=O)CNC(=O)c1nc[nH]c1C(=O)NCC(=O)OC(C)(C)C | 9.52
O=C1CN(C(=O)CNC(=O)c2ccccc2Cl)c2ccccc2N1 | 6.34
O=C(CC1(O)C(=O)Nc2ccc(Br)cc21)c1ccc2c(c1)OCO2 (stereo not shown) | 12.4
O=C(O/N=C1\CCCc2ccccc21)c1cccs1 | 17.4
Br.CC1(C(=O)CSc2n[nH]c(-c3ccccc3Cl)n2)CCC(=O)O1 (stereo not shown) | 8.24
COc1cc(CN(C)C(C)C(=O)Nc2ccc([N+](=O)[O-])cc2Cl)ccc1OC(F)F (stereo not shown) | 11.1

Structure (SMILES) | hERG current change (%, negative = inhibition) at 1uM [%]
Cc1cc(N/N=C2/CCCc3ccccc32)nc2ccccc12 | 19
Cc1cc2n(n1)SC(Nc1ccccc1)N2 (stereo not shown) | 7.56
CC1(C)Cc2cccc(OCC(=O)N3CCN(c4ccc(F)cc4)CC3)c2O1 | -16.2
COc1ccc(S(=O)(=O)N2CCOCC2)cc1N(C)S(=O)(=O)c1ccc(C)cc1 | 3.84
CCC(=O)Nc1cc(-c2nn(C)c(=O)c3ccccc23)ccc1N1CCCCC1 | 3.86
Cc1cc(N/C=C(\C#N)S(=O)(=O)c2ccccc2Cl)nc(C)n1 | 14.1
CCn1c(SCC(=O)Nc2nc3ccccc3s2)nnc1-c1ccc(Br)cc1 | 4.76
COC(=O)/C=C/c1cc(F)ccc1S(=O)(=O)NC(C)(C)C | 7.33
Cc1cc(=O)[nH]c(N/N=C/c2c(C)nn(-c3ccc(F)cc3)c2Cl)n1 | -3.02
O=C(O)/C=C/c1cn(Cc2ccccc2)nc1-c1cccnc1 | 14.1
CCN1CCc2c(OCC(=O)Nc3cccc(C)c3C)cccc2C1=O | -5.24
O=C(Nc1ccc(C(=O)O)cc1)/C(=C\c1ccc([N+](=O)[O-])cc1)NC(=O)c1ccc(Br)cc1 | 6.96
Cc1ccc(C(=O)N[C@@H](C)CN2C3=NC[C@H](Cc4ccccc4)N3C[C@H]2Cc2ccc(O)cc2)cc1Br | -68.1
COc1cc(-c2nnc(Cn3cc(C(F)(F)F)ccc3=O)o2)cc(OC)c1OC | 12.8
CC1CN(S(=O)(=O)c2cccc(C(=O)NCCCn3ccnc3)c2)CC(C)O1.Cl (stereo not shown) | 9.1
CCn1nnc(-c2ccccc2NC(=O)C(F)(F)F)n1 | -1.33
CN1CCN(NC(=O)c2cccc(C(F)(F)F)c2)CC1 | 9.29
COc1ccc(-c2[nH]ncc2/C=N\NC(=O)c2cccs2)cc1OC | 4.31
CC(=O)N(C1=C(O)c2ccccc2C(=O)C1=O)C1CCCCC1 | 2.84
COc1ccc2c(c1)[C@@H]1[C@H](CO2)[C@H](c2ccccc2)[C@]2(C)C(=O)NCC(=O)N12 | 10.2
CCN(CC)C(=S)SCC(=O)c1ccc(Br)cc1 | 12
NCCCC[C@@H](C(=O)NCCCCCCCCCCC(=O)N1CCNCC1)n1cc(CCCC(=O)O)nn1 | 3.28

Structure (SMILES) | hERG current change (%, negative = inhibition) at 1uM [%]
Cc1sc(NC(=S)NC(=O)CCc2ccccc2)c(C(N)=O)c1C | 10.5
CCOC(=O)c1sc(NC(=O)CCCn2nc([N+](=O)[O-])c(Cl)c2C)c(C(=O)OCC)c1C | 7.97
CC12CC[C@H]3[C@@H](CCC4(O)C[C@H](O)CCC34/C=N/NC(=O)c3ccc(O)cc3)C1(O)CCC2C1=CC(=O)OC1 (stereo partly shown) | 11.5
Cc1ccn2cc(CCNS(=O)(=O)c3ccc(F)c(C(F)(F)F)c3)nc2c1 | 6.15
Cc1nn(-c2ccccc2)c(Oc2ccccc2)c1C=O | 5.95
CCCCOc1ccccc1NC(=O)CSc1nnnn1C(C)(C)C | -3.47
COc1ccc(-n2nnnc2SCC(=O)NCCc2ccc(OC)c(OC)c2)cc1 | 2.56
Cc1cccc(NC(=O)c2ccccn2)c1C | -0.137
COC(=O)c1ccc(CC(C(=O)c2ccccc2)N(C)C)cc1.Cl (stereo not shown) | 12.8
O=c1[nH][nH]c(C(F)(F)F)c1C=Nc1ccc(Cl)cc1 | -0.612
CC(C)(C)n1nc2c(c1NC(=O)Cc1cccs1)CSC2 | 13.1
Nc1nonc1-n1nnc(C(=O)N/N=C/c2cccnc2)c1-c1cccs1 | 5.01
CCc1ccc(C(=O)/C=C/c2cnn(C)c2C)s1 | -13
CCNC(=S)NNC(=O)c1csc(C(C)C)c1 | 7.61
O=C(N/N=C/c1ccc2ncccc2c1)c1cccc([N+](=O)[O-])c1 | 15.3
COC(=O)c1ccc(CSc2ccc3nnc(-c4ccccn4)n3n2)o1 | -36.5
O=C1NC(c2cc(Cl)cc([N+](=O)[O-])c2O)Nc2ccccc21 (stereo not shown) | 12
CCc1sc(C(=O)N2CCN(c3ccc(F)cc3)CC2)cc1C | 14.4
Cn1c(=O)c2c([nH]c(=S)n2CCCc2ccccc2)n(C)c1=O | 14.9
O=C(CCC1CCCCC1)NCc1ccncc1 | 9.48
Cc1cccc(CN(C)C)c1OC(=O)N(C)C.Cl | -15
Cc1ccc(C(=O)CC(C(=O)O)P(=O)(c2ccccc2)c2ccccc2)cc1 (stereo not shown) | 18
